Experimental data: patent US20110152343A1, “PROTEASE INHIBITORS AND BROAD-SPECTRUM ANTIVIRAL” (Functional Genetics, Inc., priority 2009, published 2011)

System: RSV
Test: RSV infection, timing of administration (production of virus particles)
Conditions: administration before or within the first few hours after infection with RSV
Procedure: To determine the time in which treatment of cells with FGI-103 family compounds would be effective at inhibiting viral infection, NSC 369723 compound was tested for its ability to inhibit the production of virus particles (pfu/ml) depending on the time of treatment relative to the timing of infection of RSV.

Compound: N=C(N)c1ccc2oc(/C=C/c3nc4ccc(C(=N)N)cc4[nH]3)cc2c1 [NSC 369723]
- inhibition of the production of virus particles (pfu/ml): effectively inhibited
